Measured values reported in PubChem BioAssay AID360 (National Center for Advancing Translational Sciences (NCATS), 2006).
In all, about 48,000 compounds went through this assay and about 550 (1.1%) were called active. Roughly 4% stayed inconclusive and do not appear here. No stated cut-off is given here; in the data, active means potency below about 15 µM; inconclusive means mostly about 16 µM to 33 µM; inactive means weaker than that. The list shows a part of the results.

Molecular target: Lysosomal acid glucosylceramidase (Homo sapiens) (UniProt P04062)
Sequence of UniProt P04062 (P04062 whole entry, looked up): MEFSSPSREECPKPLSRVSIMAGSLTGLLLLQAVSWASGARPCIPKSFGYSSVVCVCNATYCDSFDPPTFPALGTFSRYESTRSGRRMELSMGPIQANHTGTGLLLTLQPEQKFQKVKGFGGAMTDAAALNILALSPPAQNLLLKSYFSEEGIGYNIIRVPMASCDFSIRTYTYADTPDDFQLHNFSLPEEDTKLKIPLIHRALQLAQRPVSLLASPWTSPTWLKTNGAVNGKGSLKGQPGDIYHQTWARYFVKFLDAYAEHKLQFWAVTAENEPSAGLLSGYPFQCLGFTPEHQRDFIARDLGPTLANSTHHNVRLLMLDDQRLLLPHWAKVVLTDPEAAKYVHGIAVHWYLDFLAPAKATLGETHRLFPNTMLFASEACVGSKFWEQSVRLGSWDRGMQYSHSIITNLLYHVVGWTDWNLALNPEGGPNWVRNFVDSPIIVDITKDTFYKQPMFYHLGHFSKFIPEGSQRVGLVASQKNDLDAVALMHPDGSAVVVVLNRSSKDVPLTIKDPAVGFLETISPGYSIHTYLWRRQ
Test: Glucocerebrosidase;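 further: the screen sought inhibitors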
Conditions: purified enzyme, resorufin glucoside fluorescence (screen aimed at inhibitors), 20 min
Outline: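 Normal human glucocerebrosidase (0.2 nM final) was assayed with resorufin β-D-glucopyranoside (30 uM final) in 50mM citric acid/KH2PO4, 10mM sodium taurocholate, 0.01% tween-20, pH 5.9. Compounds were titrated; fluorescence (Ex 548, Em 600) read after 20 min at RT.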
Potency means the concentration at half of the fitted maximal effect.

Potency, active:
O=C(Cn1nnc(-c2ccccc2F)n1)Nc1ccc(S(=O)(=O)NC2CCCC2)cc1 6.87 µM

Potency, inactive:
O=C(CSc1nnc(-c2c[nH]c3ccccc23)o1)N1CCCCC1 > 76.9 µM, CN1CCN(C(=O)c2cnn(-c3ccccc3)c2NC(=O)c2ccccc2F)CC1 > 76.9 µM, OC(COCc1ccccc1)CN1CCCC1 (stereo not given) > 76.9 µM, Cc1nn(Cc2ccccc2Cl)c(C)c1NC(=O)c1noc2c1CCCCC2 > 76.9 µM, COc1cccc(C2(O)CCN(C(=O)C3CC3)CC2)c1 > 76.9 µM, Cc1c(NC(=O)c2ccccc2F)c(=O)n(-c2ccccc2)n1C > 76.9 µM, CCOc1ccc(S(=O)(=O)N2CCC(C(N)=O)CC2)c2ccccc12 > 76.9 µM, Cc1sc2nc(C(C)Sc3nnc(C)n3-c3ccccc3)[nH]c(=O)c2c1C (stereo not given) > 76.9 µM, COc1cccc(NC(=O)CSc2nnc(-c3cccs3)n2C)c1 > 76.9 µM, COc1ccc(Cn2nnnc2C(c2ccncc2)N2CCOCC2)cc1 (stereo not given) > 76.9 µM, Cc1cc(N2CCN(c3ccccn3)CC2)n2c(nc3ccccc32)c1C#N > 76.9 µM, Cc1ccc(S(=O)(=O)N2CCC(C(=O)N[C@H](C(=O)N3CCN(C)CC3)C(C)C)CC2)cc1 > 76.9 µM, CCCN(CCO)Cc1cccc(Cl)c1 > 76.9 µM, O=C(/C=N/O)NCc1ccncc1 > 76.9 µM, CCC(C)OC(=O)C1=C(C)NC2=C(C(=O)C(C(=O)OC)C(C)C2)C1c1ccc(N(C)C)cc1 (stereo not given) > 76.9 µM, O=c1ccc(=O)n2n1CC(O)C2 > 76.9 µM, CCCC1=C(C(=O)OCC)C(c2ccc(N(C)C)cc2)n2ncnc2N1 (stereo not given) > 76.9 µM, C=CCSc1nc(C)c(CC(=O)OCCCC)c(=O)[nH]1 > 76.9 µM, Cc1cccc(Nc2nc(NCc3ccco3)nc(N3CCOCC3)n2)c1 > 76.9 µM, O=C(c1ccco1)N1CCN(S(=O)(=O)c2ccc3c(c2)OCCO3)CC1 > 76.9 µM, CC(C)(C)c1cnnn1-c1ccc(-c2csc(N)n2)cc1, CCN1C(=O)/C(=C/N2CCc3ccccc32)SC1=S > 76.9 µM, NS(=O)(=O)c1ccc(CCNC(=O)COC(=O)C2CCCN2C(=O)c2cccs2)cc1 (stereo not given) > 76.9 µM, C=CCn1c(SCC(=O)Nc2ccc3c(c2)OCCO3)nnc1-c1ccccn1 > 76.9 µM, CCOc1ccc(OCC)c(NC(=O)CSc2nc3ccccc3c(=O)n2C)c1 > 76.9 µM, COC(=O)c1ccc(OC(=O)c2ccccn2)cc1 > 76.9 µM, COc1ccc(Nc2cc(C(=O)NCCCN3CCN(C)CC3)c3ccccc3n2)cc1OC > 76.9 µM, COc1cc(-c2nnc3n2N=C(c2ccccc2)CS3)cc(OC)c1OC > 76.9 µM, OC(COc1ccc(OCc2ccccc2)cc1)CN1CCCCC1 (stereo not given), CCC(=O)Nc1ccc(-c2nnc(SCC(=O)Nc3nccs3)n2C)cc1 > 76.9 µM, O=C(Cc1cccs1)Nc1nnc(CCc2ccccc2)s1 > 76.9 µM, O=C1CN(S(=O)(=O)c2ccccc2)CC(=O)N1CCc1ccccc1 > 76.9 µM, COc1cc(Cn2cnnn2)ccc1O > 76.9 µM, COCC(=O)Nc1nnc(Cc2ccc(OC)c(OC)c2)s1 > 76.9 µM, Cc1cccc(C)c1NC(=O)CS(=O)CC(=O)NC1CCN(Cc2ccccc2)CC1 (stereo not given) > 76.9 µM, c1ccc(CSc2nnc(-c3ccco3)c(-c3ccco3)n2)cc1 > 76.9 µM, O=c1cc(CSc2ccccn2)[nH]c(=O)[nH]1 > 76.9 µM, Cc1cc(C)c2c(=O)[nH]n(C(C)C)c2n1 > 76.9 µM, Cc1cc(C)c(Cn2c(=O)n(CCCC(=O)NCc3ccco3)c(=O)c3ccccc32)c(C)c1 > 76.9 µM, CCOC(=O)C1CCN(S(=O)(=O)c2c(C)n[nH]c2C)CC1 > 76.9 µM, O=c1[nH]c(=O)n(Cc2ccccc2)c2c1CCC2 > 76.9 µM, CCCCn1c(NCc2ccccn2)nc2ccccc21 > 76.9 µM, O=C(CCCn1c(=S)[nH]c2ccccc2c1=O)NCc1ccco1 > 76.9 µM, CCOC(=O)c1cc2sccc2n1CC(=O)N1CCCC1 > 76.9 µM, Cn1c(SCCN2CCCCC2)nnc1-c1ccccc1Br > 76.9 µM, CC(=O)Nc1ccc(N2C(=O)CSC2c2ccc(F)cc2)cc1 (stereo not given) > 76.9 µM, CCCCN(C)C(=O)c1sc2ncn(CC)c(=O)c2c1C > 76.9 µM, c1ccc(-c2csc3ncn4nnnc4c23)cc1 > 76.9 µM, c1coc(-c2nnc3n2C2(CCCC2)Cc2ccccc2-3)c1 > 76.9 µM, Cc1c(C(=O)N2CCOCC2)sc2ncnc(N3CCc4ccccc4C3)c12 > 76.9 µM, CCOc1ccc(OCc2ccc(C(=O)Nc3cccc(C)n3)o2)cc1 > 76.9 µM, CCSc1nc2n(n1)C(c1cccc(F)c1)C1=C(CCCC1=O)N2 (stereo not given) > 76.9 µM, CS(=O)(=O)N1CCN(C(=O)Cc2cccs2)CC1 > 76.9 µM, COc1ccc(Cn2c(=O)[nH]c3cc(C(=O)N4CCN(Cc5ccccc5)CC4)ccc3c2=O)cc1 > 76.9 µM, CC(C)COC(=O)n1ccc(C(=O)N2CCCCC2)n1 > 76.9 µM, Cc1cc(NC(=O)Cn2c(=O)c3c(ncn3CC(C)C)n(Cc3ccccc3)c2=O)no1 > 76.9 µM, COc1cccc(C(=O)Nc2cccc(OC(C)=O)c2)c1 > 76.9 µM, COc1ccccc1NC(=O)c1ccc(NS(C)(=O)=O)cc1 > 76.9 µM, COc1ccc(S(=O)(=O)NCCOc2ccccc2)cc1OC > 76.9 µM, COCc1ccc2oc(C(=O)O)cc2c1 > 76.9 µM, CCCn1c(=O)c2ccccc2n2c(Sc3nnnn3-c3ccccc3)nnc12 > 76.9 µM, CCCCOc1ncnc2c1[nH]c1ccc(F)cc12 > 76.9 µM, Cc1ccc(S(=O)(=O)N2CCC(C(=O)Nc3nnc(-c4ccco4)s3)CC2)cc1 > 76.9 µM, O=C1CCCC(O)=C1C(C#Cc1ccccc1)C1=C(O)CCCC1=O > 76.9 µM, Cc1nc(CNS(=O)(=O)c2cc(C)c(C)cc2C)cs1 > 76.9 µM, O=C(NCc1ccc2c(c1)OCO2)c1cc2ncc(Br)cn2n1 > 76.9 µM, COc1ccccc1NS(=O)(=O)c1ccc(Br)s1 > 76.9 µM, CC(=O)Nc1sc2c(c1C#N)CCCCC2 > 76.9 µM, CCOC(=O)c1cc2sccc2n1CCCN1C(=O)c2ccccc2C1=O, CCCNC(=O)c1cc(SC)ccc1Cl > 76.9 µM, CC1=C(C(=O)Nc2ccc(C)cc2)C(c2ccc(C)o2)C2=C(CC(C)(C)CC2=O)N1 (stereo not given) > 76.9 µM, O=C(CCSc1ccccc1)NCC1CCCO1 (stereo not given) > 76.9 µM, CC(C)Oc1snc(Cl)c1C(N)=O > 76.9 µM, O=C(c1ccc(Br)o1)N1CCN(Cc2ccc3c(c2)OCO3)CC1 > 76.9 µM, Cn1cnc2c1c(=O)n(Cc1cccc(Br)c1)c(=O)n2C > 76.9 µM, Cc1cc(C)n(CCO)c(=O)n1 > 76.9 µM, Cc1ccc2c(c1)nnn2C1CCN(C(=O)c2cccs2)CC1 > 76.9 µM, Cn1nnnc1SCC(=O)Nc1cc(C(C)(C)C)nn1-c1ccccc1 > 76.9 µM, Cn1c(-c2ccc(C(=O)c3ccccc3)s2)nc2ccccc21 > 76.9 µM, Cc1ccc(-c2nn(CC(=O)NCCN3CCOCC3)c(=O)c3ccccc23)cc1, CCOC(=O)CC(=O)c1cc(OC)c(OC)c(OC)c1 > 76.9 µM, CCCC1CC(c2csc(N)n2)CCO1 (stereo not given) > 76.9 µM, COCCCn1c(SCC(=O)NCc2ccco2)nc2sc3c(c2c1=O)CCC3 > 76.9 µM, Oc1ccc(Nc2nc(-c3ccc(O)cc3)cs2)cc1, COc1cccc(C2=NOC(C(=O)NCc3ccco3)C2)c1 (stereo not given) > 76.9 µM, CCN(CC)P1(=O)OC(c2cc(OC)c(OC)c(OC)c2)=Nc2c1c(C)nn2-c1ccccc1 (stereo not given) > 76.9 µM, C=CCc1cc(C(=O)N2CCCCC2)ccc1O > 76.9 µM, N=c1sc2ccccc2n1-c1ccccc1 > 76.9 µM, Nc1ccn(-c2ccccc2)c(=O)c1 > 76.9 µM, Cc1nc(SCC(=O)Nc2ccccc2C(F)(F)F)c2c(=O)n(C)c(=O)n(C)c2n1 > 76.9 µM, O=C1Nc2ccccc2C(O)(C(=O)NCc2ccc3c(c2)OCO3)N1c1ccccc1 (stereo not given) > 76.9 µM, Cc1cc(S(=O)(=O)N2CCN(c3ncccn3)CC2)ccc1-n1cnnn1 > 76.9 µM, C=CCOc1ccccc1C1C2=C(CC(C)(C)CC2=O)Nc2c1c(=O)n(C)c(=O)n2C (stereo not given) > 76.9 µM, CCCCCC/C(=N/O)c1ccccn1 > 76.9 µM
